# Source: PubChem BioAssay AID485344 (National Center for Advancing Translational Sciences (NCATS), 2010)
# Where “and” joins values, the source holds several entries; their conditions need not be identical. Identical values can stand only once. The campaign covered roughly 340,000 compounds. About 6,900 (2%) were called active. Cut-off read from the data, not from the text of the source: active = inhibition above about 30%; inactive = below that, where a call was filed. The entries are a selection whose mix differs from that of the whole data set. Where no call is shown, the source filed none.
# Target: D(2) dopamine receptor (Homo sapiens) (UniProt P14416)
# Assay: HTS Assay for Allosteric Antagonists of the Human D2 Dopamine Receptor: Primary Screen for Antagonists; note: 0% is about no effect
# Settings: HEK293 TREx D2 cells, calcium flux, dopamine EC80; at 10 µM; stronger effect = higher value
# Method in brief: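 Overnight-induced (tetracycline, 30 C) HEK293 T-REx cells carrying force-coupled D2 receive a no-wash calcium dye, then compound, then EC80 dopamine at 180 s; signals are read kinetically throughout.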
# Chain of UniProt P14416 (P14416 whole entry, looked up): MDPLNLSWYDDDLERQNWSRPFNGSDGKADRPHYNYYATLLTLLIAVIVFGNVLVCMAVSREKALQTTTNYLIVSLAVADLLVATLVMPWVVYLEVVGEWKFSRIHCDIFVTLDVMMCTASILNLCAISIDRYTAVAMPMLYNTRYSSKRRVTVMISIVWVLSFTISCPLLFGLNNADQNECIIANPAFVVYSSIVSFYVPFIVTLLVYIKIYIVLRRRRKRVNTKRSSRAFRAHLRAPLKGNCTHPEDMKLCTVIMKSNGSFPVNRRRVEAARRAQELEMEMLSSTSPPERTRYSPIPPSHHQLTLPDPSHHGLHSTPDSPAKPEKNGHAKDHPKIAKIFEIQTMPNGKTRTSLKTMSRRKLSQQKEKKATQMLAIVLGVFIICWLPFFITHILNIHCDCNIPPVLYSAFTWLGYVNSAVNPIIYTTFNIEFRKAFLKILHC
row,Structure (SMILES),inhibition
1,COc1ccc(-c2nnc(Nc3ccc(OC)c(C(N)=O)c3)c3ccccc23)cc1,8.94%
2,CCc1ccc2oc(-c3cccc(NC(=O)C(C)(C)Oc4ccc(Br)cc4)c3)nc2c1,-1.95%
3,Cc1ccc(S(=O)(=O)c2nc(-c3ccc(F)cc3)oc2SCC(=O)c2ccccc2)cc1,-9.67%
4,Cc1cc(C)cc(Nc2ncnc3onc(-c4ccc(F)cc4)c23)c1,3.68%
5,O=S(=O)(c1ccc(Cl)cc1)c1nnn2c1nc(NCc1cccs1)c1sccc12,-2.36%
6,CCOc1ccc(-n2c(=O)c3c4c(sc3n(CC(=O)NC(C)CC)c2=O)CCC4)cc1 (configuration not stated),-3.41%
7,CN(C)S(=O)(=O)N(CC(=O)NCCSCc1cccc(Cl)c1)c1ccccc1,19.9%
8,CCOC(=O)c1ccc(N2C(=O)c3n[nH]c(-c4cccs4)c3C2c2cccc(OC)c2)cc1 (configuration not stated),-1.65%
9,O=C(CSC1=N/C(=C/c2ccc(Cl)c(Cl)c2)C(=O)N1c1ccccc1F)NC1CC1,active: 52.1%
10,CCC(CC)C(=O)N1CCc2cc(OC)c(OC)cc2C1COc1ccc(C(=O)OC)cc1 (configuration not stated),-13.6%
11,COc1ccc(C)cc1NC(=O)CSc1nc(=O)[nH]c2c1CCCC2,-3.27%
12,COc1cccc(N2C(=O)CSC23C(=O)N(CC(=O)Nc2cccc(Cl)c2)c2ccccc23)c1 (configuration not stated),9.76%
13,O=C(CSc1cn(CCNC(=O)c2ccccc2F)c2ccccc12)Nc1ccc(F)cc1,18.6%
14,COc1cc(CN(C(=O)COc2ccccc2Cl)c2ccccn2)cc(OC)c1OC,6.29%
15,COc1cccc(-n2c(-c3ccco3)nc3c(cnn3-c3ccc(Cl)cc3)c2=O)c1,0.831%
16,CCn1c(C)c(C)c2cc(C(=O)N3CCN(c4cccc(C)c4C)CC3)ccc21,-4.07% and active: 35.7%
17,CC(C)c1ccc(CNC(=O)c2ccc(N3CCCC3)c(NC(=O)NCc3ccc(F)cc3)c2)cc1,-23.7%
18,COC(=O)c1c(SCC(=O)Nc2ccccc2C(F)(F)F)[nH]c2ccc(Cl)cc2c1=O,8.42%
19,Cc1ccc(CNC(=O)CCc2c(C)c3cc4c(C)coc4cc3oc2=O)cc1,16.2%
20,CCOc1ccc(/C=C(\C#N)C(=O)Nc2sc3c(c2C(=O)OC)CCC3)cc1OC,-0.596%
21,CCOC(=O)C1CCN(C(c2ccc(C)cc2)c2sc3nc(-c4ccco4)nn3c2O)CC1 (configuration not stated),19.2%
22,Cc1cccc(Nc2cc(C)nc3nc(-c4ccccc4)nn23)c1,3.96%
23,COc1cccc(CC(=O)OC(C)C(=O)NCc2ccc3c(c2)OCO3)c1 (configuration not stated),active: 55.1%
24,CC1=C(C(=O)Nc2cccc(F)c2)C2(CCCCC2)OC1=O,12.9%

row,Structure (SMILES),inhibition
1,Cc1ccc(/C=C2\SC(=S)N(/N=C/c3cc([N+](=O)[O-])ccc3O)C2=O)o1,active: 31.6%
2,O=C(CCC1N=C2c3ccccc3N=C(SCc3ccc(F)cc3)N2C1=O)N1CCN(c2ccccc2)CC1 (configuration not stated),-7.24%
3,Clc1ccc(-c2nc3ncccn3c2Nc2ccc3c(c2)OCCO3)cc1,6.82%
4,CCOC(=O)c1ccc(N2C(=O)c3n[nH]c(-c4cccs4)c3C2c2cccc(O)c2)cc1 (configuration not stated),1.97%
5,COc1ccc(N2CCN(C(=O)CCCCn3c(=O)[nH]c4ccsc4c3=O)CC2)cc1,-9.66%
6,COc1ccc(CNC(=O)c2cc(-c3ccc(OC)c(OC)c3)nc3n[nH]c(-c4ccc(C)cc4)c23)cc1,12.1%
7,CC(=O)c1ccc(NC(=O)CSc2nnc3c(n2)[nH]c2ccccc23)cc1,2.3%
8,O=C(CSc1ccc2nc(-c3ccccc3)cn2n1)Nc1ccccc1,-1.8%
9,O=C(Nc1ccc(F)cc1F)c1ccc(-n2cnc3cccnc32)cc1,4.18%
10,c1ccc(-c2csc(=Nc3cccnc3)n2CC2CCCO2)cc1 (configuration not stated),active: 30.3%
11,CC(C)=C(NC(=O)c1ccccc1)C(=O)NC(Cc1ccccc1)C(=O)O (configuration not stated),active: 38.9%
12,CCOCCCNC(=O)CN1C(=O)COc2ccc(S(=O)(=O)N3CCOCC3)cc21,-15.6%
13,COc1ccc(-c2cc(C(F)(F)F)nc(SCCC(=O)Nc3ccc(F)cc3F)n2)cc1,-5.52%
14,COc1ccc(CNC(=O)c2cc3cccc4c3n2CC(C)S4)cc1 (configuration not stated),8.32%
15,CCOc1ccc(NC(=O)CSc2nc3ccccc3nc2N2CCOCC2)cc1,14.8%
16,O=c1c(N2CCN(c3ccc(F)cc3)CC2)csc2ccc(F)cc12,-0.247%
17,COc1ccc(S(=O)(=O)NC(C)(C)CO)cc1-c1nnc2c3ccccc3c(C)nn12,-2.15%
18,CC(C)CC(=O)Nc1cccc(-c2cn3cccnc3n2)c1,-12.8%
19,CCCn1c(=O)c2sccc2n2c(CCCC(=O)N3CCN(c4ccc(OC)cc4)CC3)nnc12,-12.8%
20,CC1CCN(S(=O)(=O)c2ccc3nc(Nc4cccc(F)c4)ccc3c2)CC1,3.34%
21,Cc1nn(-c2cccc(Cl)c2)c2nc(-c3cccnc3)cc(C(F)(F)F)c12,-8.4%
22,CC(C)CNC(=O)C(=O)Nc1c2c(nn1-c1ccc(Cl)cc1)CSC2,13.1%
23,CC(=O)c1ccc(NC(=O)CSc2nccn2C2CCCC2)cc1,4.26%
